Test results reported in the supplement of paper PMC3334620.
Whole data set: some 33,000 sequences, median “E-score (-0.5 to 0.5)” near -0.021, cut for the highest 2% near 0.32. The list shows a part of the results.

The sequences below were run against T1, Zap1 (UniProt P47043) (assay: PBM E-score (8-mer binding enrichment) (E-score (-0.5 to 0.5)); higher = stronger / more preferred TF binding; most listed sequences are background and not binding sites). Settings: protein concentration: 200 nM; construct: GST-full length.
T1 sequence: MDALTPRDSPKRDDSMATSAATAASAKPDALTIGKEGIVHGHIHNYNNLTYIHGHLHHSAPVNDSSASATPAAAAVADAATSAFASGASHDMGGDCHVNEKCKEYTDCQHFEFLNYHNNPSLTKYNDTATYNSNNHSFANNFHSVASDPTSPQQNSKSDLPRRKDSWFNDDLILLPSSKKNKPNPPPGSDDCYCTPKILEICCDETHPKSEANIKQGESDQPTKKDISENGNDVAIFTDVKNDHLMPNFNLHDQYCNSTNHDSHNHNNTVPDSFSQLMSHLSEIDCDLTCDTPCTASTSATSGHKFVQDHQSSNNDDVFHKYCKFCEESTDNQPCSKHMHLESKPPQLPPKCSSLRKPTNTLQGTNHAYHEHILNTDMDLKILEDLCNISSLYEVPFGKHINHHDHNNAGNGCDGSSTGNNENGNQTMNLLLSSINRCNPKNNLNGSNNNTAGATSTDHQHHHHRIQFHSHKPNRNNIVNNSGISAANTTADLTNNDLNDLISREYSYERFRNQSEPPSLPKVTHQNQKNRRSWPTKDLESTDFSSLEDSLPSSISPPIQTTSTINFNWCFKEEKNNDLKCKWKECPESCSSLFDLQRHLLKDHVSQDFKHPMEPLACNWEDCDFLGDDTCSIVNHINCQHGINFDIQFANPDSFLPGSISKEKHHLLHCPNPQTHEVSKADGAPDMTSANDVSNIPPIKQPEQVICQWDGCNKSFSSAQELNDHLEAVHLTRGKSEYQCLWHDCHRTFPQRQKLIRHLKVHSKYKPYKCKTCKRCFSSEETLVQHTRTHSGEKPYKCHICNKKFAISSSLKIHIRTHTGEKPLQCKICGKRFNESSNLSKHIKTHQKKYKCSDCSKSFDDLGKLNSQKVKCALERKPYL
Description: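 Universal 'all 10-mer' protein binding microarrays (Agilent AMADID 015681) probed with GST-tagged S. cerevisiae TFs (full-length or DBD) made by in vitro transcription/translation (PURExpress), about 100-200 nM. Bound TF was detected with fluorescent anti-GST. Each ungapped 8-mer (which stands for itself and its reverse complement) is scored by the PBM enrichment score (E-score), a modified Wilcoxon-Mann-Whitney statistic from -0.5 to +0.5, computed with the Universal PBM Analysis Suite. Scale: above 0.35 generally sequence-specific binding.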
With CGACTACC the “PBM E-score” value was 0.143. With ATGCGACC the “PBM E-score” value was 0.156. For GCATCCAA, the “PBM E-score” value was -0.203. ATGGTTAA was tested, and the “PBM E-score” value was 0.357. For CTTGTTAC, the “PBM E-score” value was 0.118. AAGGCCTT was tested, and the “PBM E-score” value was 0.101. CGCAAATA was tested, and the “PBM E-score” value was 0.139. In the case of CCCTCACC, the “PBM E-score” value is reported as 0.0335. In the case of GCCGCCAA, the “PBM E-score” value is reported as -0.118. In the case of GGGCGTCA, the “PBM E-score” value is reported as -0.0847. GATTTCAC was tested, and the “PBM E-score” value was -0.071. For ACGAAATC, the “PBM E-score” value was 0.162. For GAACATGC, the “PBM E-score” value was -0.277. ATCAGCAC was tested, and the “PBM E-score” value was -0.0542. With AATTCAAT the “PBM E-score” value was 0.00565. In the case of AGCGATCG, the “PBM E-score” value is reported as 0.0228. For CAATCGCC, the “PBM E-score” value was 0.0386. AGTCGAAC was tested, and the “PBM E-score” value was -0.103. With ACCCAATA the “PBM E-score” value was 0.0229. In the case of AGCGCTGC, the “PBM E-score” value is reported as -0.264. With ATAACATG the “PBM E-score” value was -0.0351. CAACACAA was tested, and the “PBM E-score” value was 0.214. CATGCGCA was tested, and the “PBM E-score” value was -0.0197. For ACGCCCTG, the “PBM E-score” value was -0.154. For GCGCGGCC, the “PBM E-score” value was 0.104. With TGGGGTAA the “PBM E-score” value was 0.347. With AATGGGCT the “PBM E-score” value was -0.158. For AACCGGAA, the “PBM E-score” value was 0.159. For CCGACGCA, the “PBM E-score” value was -0.301. In the case of AAGAGGGG, the “PBM E-score” value is reported as -0.0326. For CCGCGTCG, the “PBM E-score” value was -0.0481. For GCTTTAAA, the “PBM E-score” value was -0.0466. In the case of GATAATAC, the “PBM E-score” value is reported as 0.067. With ACGCAGGA the “PBM E-score” value was -0.0923. With ATACATAT the “PBM E-score” value was 0.233. In the case of AATGTAAG, the “PBM E-score” value is reported as -0.0104. In the case of CAGAGTGC, the “PBM E-score” value is reported as -0.204. In the case of AGCCTCTA, the “PBM E-score” value is reported as -0.101. In the case of CCCACCCC, the “PBM E-score” value is reported as 0.149. ACATCTTG was tested, and the “PBM E-score” value was -0.2. With AATAAACG the “PBM E-score” value was 0.117. For AGATATTC, the “PBM E-score” value was -0.041. With AGGCCAAG the “PBM E-score” value was -0.148. In the case of CATGTGTA, the “PBM E-score” value is reported as 0.113. In the case of AGGAGCAC, the “PBM E-score” value is reported as -0.00984. CGAATGCA was tested, and the “PBM E-score” value was -0.144. In the case of AACAGGGA, the “PBM E-score” value is reported as 0.044. In the case of GGCATGCA, the “PBM E-score” value is reported as -0.0897. GTTTACAA was tested, and the “PBM E-score” value was 0.23. In the case of TCCGCCAA, the “PBM E-score” value is reported as -0.084. With CTCATTAC the “PBM E-score” value was 0.175. For ACTTGCTG, the “PBM E-score” value was -0.0261. ACGGCCTC was tested, and the “PBM E-score” value was 0.0852. In the case of ATTATACG, the “PBM E-score” value is reported as 0.0915. For ATGGACCC, the “PBM E-score” value was 0.249. For AACCCTAC, the “PBM E-score” value was 0.357. With GGCTCGTA the “PBM E-score” value was 0.0967. In the case of TACTACGA, the “PBM E-score” value is reported as 0.18. For TAACCCGA, the “PBM E-score” value was 0.345. With CCAGACAA the “PBM E-score” value was 0.0344. In the case of TAGGGTGA, the “PBM E-score” value is reported as 0.299. In the case of TCCTCTAA, the “PBM E-score” value is reported as -0.0176. With CTACCCTA the “PBM E-score” value was 0.291. In the case of CTGAAGAC, the “PBM E-score” value is reported as -0.098. For CCGAGTAA, the “PBM E-score” value was 0.0791. With GGTCACAC the “PBM E-score” value was 0.294. For ACGACTTA, the “PBM E-score” value was -0.208. In the case of GACTGCAC, the “PBM E-score” value is reported as -0.117. With AAGGGATC the “PBM E-score” value was 0.0637. ATCCCGTA was tested, and the “PBM E-score” value was 0.0415. CGGAGATA was tested, and the “PBM E-score” value was 0.0308. In the case of AGGAGCTA, the “PBM E-score” value is reported as -0.404. In the case of AGTCCAGA, the “PBM E-score” value is reported as 0.136. With CAGCACCG the “PBM E-score” value was -0.0742. In the case of ACAAATAC, the “PBM E-score” value is reported as 0.0714. For CGTCTCCA, the “PBM E-score” value was 0.0297. ATCGGGAC was tested, and the “PBM E-score” value was -0.132. CTGTCCTA was tested, and the “PBM E-score” value was -0.16. With AACAACCC the “PBM E-score” value was 0.408. For GATTCGTA, the “PBM E-score” value was -0.0926. With AATTCTGG the “PBM E-score” value was 0.0624. CATCGAAG was tested, and the “PBM E-score” value was -0.0537. In the case of ATTCGTGC, the “PBM E-score” value is reported as 0.0351. With ACTCTAAG the “PBM E-score” value was -0.0542. In the case of CGATTGCA, the “PBM E-score” value is reported as 0.0544. ACTAGTCG was tested, and the “PBM E-score” value was -0.193. With CCCCTTAG the “PBM E-score” value was 0.107. With AAAGGCTT the “PBM E-score” value was -0.228. With GATTCTTA the “PBM E-score” value was 0.177. In the case of TGATAGAA, the “PBM E-score” value is reported as 0.0749. With AATGTTGA the “PBM E-score” value was -0.106. AAGTGCTG was tested, and the “PBM E-score” value was -0.208. For ACTCATTC, the “PBM E-score” value was -0.0523. GTATATTA was tested, and the “PBM E-score” value was 0.101.
